# Test results taken from PubChem BioAssay AID624296 (National Center for Advancing Translational Sciences (NCATS), 2012).
# The whole screen tested about 350,000 compounds, of which about 9,900 (2.8%) were called active. The shares of active, inactive and inconclusive entries below differ from those in the screen. Calls follow the shape of the dose curve; as a rule, active = well fitted activation curve with a large enough effect; inconclusive = small, poorly fitted or top-dose-only effect; inactive = no such curve, though single readings can be large or run the other way. Potencies of inconclusive entries are left out as doubtful fits.
# Assay: A quantitative high throughput screen for small molecules that induce DNA re-replication in MCF 10a normal breast cells. Also: nearly all actives have a fitted effect of over 50% in size. As to activity, positive = re-replication: % of control where 0% means no effect.
# Settings: MCF 10A DNA re-replication, Hoechst nuclear intensity, 48 h; activity, positive = re-replication: at 46.1 µM (top of the series)
# Potency is read from the fitted curve at half-maximal effect; tags tell the direction and shape of the fitted curve.
Structure (SMILES),Potency,"activity, positive = re-replication"
O=C1OC[C@H]2CCCN2C(=O)[C@@H](CC(=O)N(CCO)Cc2ccccc2)C/C=C\C[C@@H]1Cc1ccc(F)cc1,"inconclusive [activator, partial curve, poor fit]",
COc1ccc(C(=O)NCCCSc2ccccc2)cc1F,,inactive: -18.1%
O=S(=O)(NCC1CCCO1)c1ccc(S(=O)(=O)N(Cc2ccccc2F)C2CCCCC2)cc1 (stereo not given),"inconclusive [activator, full curve, poor fit]",
CC1(C(=O)OCC(=O)NCc2ccc(Cl)cc2)CC1(Cl)Cl (stereo not given),"inconclusive [activator, single point]",
COc1ccc(NC(=O)Cn2nc(C(F)(F)F)c3c2CCCC3)cc1OC,"inconclusive [activator, partial curve, poor fit]",
CCn1c(SCC(=O)c2c(N)n(C3CC3)c(=O)[nH]c2=O)nnc1-c1ccccc1OC,,inactive: 1.3%
CC(NC(=O)CN1CCN(c2cccc(Cl)c2)CC1)c1ccccc1 (stereo not given),"inconclusive [activator, single point]",
Cn1c(CN2CCCC2)nc2cc(NC(=O)c3ccc(Cl)cc3)ccc21,"inconclusive [activator, single point]",
O=C(Nc1ccc(S(=O)(=O)NCc2ccco2)cc1)C1CCCCC1,,inactive: 12.8%
C/C(=N\Nc1nc2ccccc2s1)c1cccs1,"inconclusive [activator, partial curve, poor fit]",
COC(=O)[C@]1(C)N[C@H](CN(C)C(=O)Nc2ccc(Cl)cc2)[C@@H]2C(=O)N(Cc3ccccc3)C(=O)[C@@H]21,,inactive: -21.6%
O=C(CSc1ncn[nH]1)NCCc1ccccc1,"inconclusive [activator, partial curve, poor fit]",
O=C(OCCCN=C1NS(=O)(=O)c2ccccc21)c1ccccc1,"inconclusive [activator, single point]",
COc1ccc(S(=O)(=O)Nc2ccc3ccccc3c2)cc1C,"inconclusive [activator, single point]",
FC(F)(F)c1cnc2c(c1)[nH]c(=S)n2-c1ccc(Cl)cc1,"inconclusive [activator, full curve, poor fit]",
N#Cc1c(-c2ccco2)cc(-c2ccccc2)[nH]c1=O,"inconclusive [activator, single point]",
C/C(=N/NC(=O)c1ccncc1)c1cc2ccc(O)cc2oc1=O,"inconclusive [activator, single point]",
COc1ccc(N=C2S/C(=C\c3ccc(C)o3)C(=O)N2CC(C)C)cc1,"inconclusive [activator, partial curve, poor fit]",
COc1ccc(CNc2ncnc3c2[nH]c2cc(OC)c(OC)cc23)cc1,"inconclusive [activator, single point]",
COc1ccccc1NC(=O)COc1ccccc1C(=O)c1cnn(-c2ccccc2)c1,"inconclusive [activator, partial curve, poor fit]",
CCNc1nc(SCC(=O)Nc2ccc(Cl)c(Cl)c2)nc(N2CCOCC2)n1,"inconclusive [activator, single point]",
CC(CN1CCN(C)CC1)OC(=O)c1ccc(Cl)cc1 (stereo not given),"inconclusive [activator, full curve, poor fit]",

Structure (SMILES),Potency,"activity, positive = re-replication"
O=C(Nc1ccc(F)cc1)c1cc(-c2ccncc2)nc2c(Cl)cccc12,"inconclusive [activator, single point]",
N#C/C(=C(/O)CSc1nnc(Cc2cccs2)n1C1CCCCC1)c1nc2ccccc2[nH]1,"inconclusive [activator, single point]",
COc1ccc(Nc2nnc(Cc3ccccc3)c(=O)[nH]2)c(OC)c1,"inconclusive [activator, partial curve, poor fit]",
Cc1ccc(S(=O)(=O)/N=C2/NC(=O)/C(=C/c3ccccc3)S2)cc1,"inconclusive [activator, partial curve]",
CC(C)CN(C[C@@H](O)[C@H](Cc1ccccc1)NC(=O)O[C@H]1CCOC1)S(=O)(=O)c1ccc(N)cc1,,inactive: -7.32%
Cc1ccc(NC(=O)CSCC(=O)Nc2cccc(S(=O)(=O)N3CCCCCC3)c2)cc1,"inconclusive [activator, full curve, poor fit]",
Cc1n[nH]c(C)c1N=Nc1ccc(Br)cc1,"inconclusive [activator, single point]",
Cc1csc(N(C(=O)c2cccc(S(=O)(=O)N(C)C)c2)c2ccccc2)n1,,inactive: -4.19%
CN(Cc1ccccc1)C(=O)c1cccc(NC(=O)Cc2cccc([N+](=O)[O-])c2)c1,,inactive: -4.25%
C=C[C@H](Cc1ccccc1)N(Cc1ccccc1)S(=O)(=O)N(Cc1ccccc1)[C@H](C=C)Cc1ccccc1,,inactive: 3.83%
CN(c1ccc(C(=O)Nc2ccccc2Sc2ccccc2)cc1)S(C)(=O)=O,"inconclusive [activator, single point]",
COc1ccc(-c2ccc3c(c2)[C@@H]2C[C@H]4[C@@H](C(=O)N2CC3)[C@H](C)ON4C)cc1,"inconclusive [activator, partial curve, poor fit]",
COc1cccc(C2C=C(Nc3ccccc3)C(=O)N2c2ccccc2)c1 (stereo not given),"inconclusive [activator, single point]",
O=C(NCCOc1ccccc1Cl)C(=O)Nc1ccccc1,"inconclusive [activator, full curve, poor fit]",
C=CCNc1oc(-c2ccc(OCC)cc2)nc1C#N,,inactive: -2.13%
COc1ccc(N(C)S(=O)(=O)c2cccc(C(=O)Nc3nnc(C)s3)c2)cc1,"inconclusive [activator, single point]",
O=S(=O)(Nc1ccc2c(c1)OCO2)c1ccc(Br)s1,active: 18.4 µM,
Cc1ccc(-n2nc3c(=O)n(CC(=O)NCc4ccccc4)nc(C)c3c2C)cc1,,inactive: -2.15%
Cc1ccc(C)c(N2CCN(C(=O)CCc3nc(-c4ccccc4)no3)CC2)c1,"inconclusive [activator, single point]",
O=Cc1c(-c2ccc(Cl)cc2)oc2ccc(O)cc12,,inactive: 9.96%
Cc1cc(Cn2nnc(-c3ccc(Br)cc3)n2)cc(C)c1O,"inconclusive [activator, single point]",
COc1cccc(/C=N/NC(=O)c2ccc(-c3ccccc3)cc2)c1O,"inconclusive [activator, single point]",

Structure (SMILES),Potency,"activity, positive = re-replication"
C[C@H](NC(=O)c1nc[nH]c1C(=O)N1CCN(c2ccccc2)CC1)C(=O)OCc1ccccc1,"inconclusive [activator, single point]",
COc1cc(C(=O)NCCC2=CCCCC2)cc(OC)c1OC,,inactive: 3.73%
CCCC(=O)N(c1ccc(OCC)cc1)C1C=CS(=O)(=O)C1 (stereo not given),,inactive: 3.23%
O=[N+]([O-])c1cccc(S(=O)(=O)Nc2ccc(-c3ccc(N4CCCC4)nn3)cc2)c1,"inconclusive [activator, single point]",
O=c1oc(-c2ccccc2[N+](=O)[O-])nc2ccccc12,"inconclusive [activator, single point]",
COc1cc(/C=C(\C#N)C(=O)NC(C)C)ccc1OCc1ccc(C(=O)O)cc1,"inconclusive [activator, full curve, poor fit]",
CC1CCCCN1S(=O)(=O)c1ccc(C(=O)Nc2nnc(-c3ccccc3Cl)o2)cc1 (stereo not given),"inconclusive [activator, full curve, poor fit]",
Cn1c(=O)c([N+](=O)[O-])c(NCCCn2ccnc2)c2ccccc21,"inconclusive [activator, single point]",
CC(=O)c1ccc(NC(=O)CCc2nnc3ccc(N4CCC5(CC4)OCCO5)nn23)cc1,,inactive: 1.5%
CCC1CCC(N2CCN(c3ccc([N+](=O)[O-])cc3)CC2)CC1 (stereo not given),,inactive: -3.3%
CCOc1ncccc1C(=O)Nc1cc(S(=O)(=O)N2CCCCCC2)ccc1OC,"inconclusive [activator, partial curve, poor fit]",
Cc1cc(C)nc(N/N=C/c2ccc(N3CCOCC3)cc2)n1,,inactive: -2.78%
CN1C=CC=C/C1=C1\SC(=S)N(N)C1=O,,inactive: -3.99%
OC1(C#Cc2c(-c3ccsc3)oc3ccc(N4CCOCC4)cc23)CCCCC1,"inconclusive [activator, single point]",
O=C(CCl)N1CCN(S(=O)(=O)c2ccc3c(c2)CCC3)CC1,"inconclusive [activator, single point]",
CC(NC(=O)COC(=O)c1cc2ccccc2cc1O)c1ccccc1 (stereo not given),"inconclusive [activator, partial curve, poor fit]",
CC(C)(C)c1ccc(C(=O)Nc2cccc3c(=O)[nH][nH]c(=O)c23)cc1,"inconclusive [activator, single point]",
CC(C)(C)C(=O)Nc1cccc(-c2nc3ccccc3c(=O)o2)c1,"inconclusive [activator, single point]",
COC(=O)c1ccc(N2CCCCC2)c(NC(=O)c2ccco2)c1,"inconclusive [activator, partial curve, poor fit]",
COc1ccc(C(=O)/C=C/C(=O)N(Cc2ccccc2)C(C(=O)NC2CCCCC2)c2ccncc2)c(O)c1 (stereo not given),,inactive: 1.46%
CCOC(=O)c1ccc(NCc2ccc3c(c2)OCO3)cc1,"inconclusive [activator, partial curve, poor fit]",
